Data from the supplement of paper PMC2702839.
Counter-ions that a name gives are not always drawn. Some of the results follow.

The compounds below were run on Schistosoma mansoni schistosomula (assay: phenotypic hit in primary schistosomula screen (any phenotype vs DMSO control) (binary (1 = hit, 0 = no phenotype)); higher = active (phenotype induced)). Settings: 1 µM; time (d): 7.

Structure (SMILES) | phenotypic hit
CC/C(=C(\c1ccccc1)c1ccc(OCCN(C)C)cc1)c1ccccc1 [Tamoxifen citrate] | inactive: 0
O=C(O)c1cccnc1C(=O)O [Quinolinic acid] | inactive: 0
COc1cc2c(cc1-c1coc3c4c(c(OC)cc3c1=O)OC(C)(C)C=C4)OCO2 [ichthynone] | inactive: 0
CC(=O)O[C@@H]1C[C@H]2C(C)(C)[C@H](O)C[C@H](O)[C@]2(C)[C@H]2CC[C@@]3(C)[C@H](c4ccoc4)OC(=O)[C@H]4O[C@]43[C@@]21C [1,3-dideacetylkhivorin] | inactive: 0
CCOc1ccc(NC(C)=O)cc1 [phenacetin] | inactive: 0
CN1CCC[C@@H]1CCO[C@](C)(c1ccccc1)c1ccc(Cl)cc1 [clemastine] | inactive: 0
CC(C(=O)O)c1ccc(C(=O)c2cccs2)cc1 (stereo not drawn) [suprofen] | inactive: 0
CC(=O)O[C@H]1CC[C@]2(C)[C@H]3C(=O)C=C4[C@@H]5C[C@@](C)(C(=O)O)CC[C@]5(C)CC[C@@]4(C)[C@]3(C)CC[C@H]2C1(C)C [acetoxolone] | inactive: 0
N[C@@H](C=O)[C@@H](O[C@@H]1O[C@H](C(=O)O)[C@@H](O)[C@H](O)[C@H]1O)[C@@H](O)[C@H](O)CO [chondrosine] | inactive: 0
COc1ccc(C(=O)c2ccccc2O)c(O)c1 [dioxybenzone] | inactive: 0
COCCc1ccc(OCC(O)CNC(C)C)cc1 (stereo not drawn) [metoprolol tartrate] | inactive: 0
COc1ccc(-c2cc(=O)c3ccc(OC)cc3o2)cc1 [4,7-dimethoxyflavone] | inactive: 0
COC1=CC(=O)C=C(OC)C1=O [2,6-dimethoxyquinone] | inactive: 0
CCOC(=O)C1=C(O)C(=O)N(Cc2ccccc2)C1 [ethyl 1-benzyl-3-hydroxy- 2-oxo[5h]pyrrole-4-carboxylate] | inactive: 0
O=c1c(O)c(-c2ccc(O)c(O)c2)oc2cc(O)cc(O)c12 [quercetin] | inactive: 0
CC(=O)Nc1cccc(O)c1 [metacetamol] | inactive: 0
O=C(O)C1(C(=O)O)CCC1.[NH2-].[NH2-].[Pt+2] [carboplatin] | inactive: 0
N=C(N)NCCCCN [Agmatine sulfate] | inactive: 0
CN1CCOC(c2ccccc2)c2ccccc2C1 (stereo not drawn) [nefopam] | inactive: 0
COc1cc2occ(-c3ccccc3)c(=O)c2c(OC)c1C [4,6-dimethoxy-5-methylisoflavone] | inactive: 0
CC1(C)CC[C@]2(C(=O)O)CC[C@]3(C)C(=CCC4[C@@]5(C)CC[C@@H](O)C(C)(C)C5CC[C@]43C)C2C1 (stereo partly drawn) [oleanoic acid] | inactive: 0
CCN(CC)CCOc1ccc(C(=C(Cl)c2ccccc2)c2ccccc2)cc1 [clomiphene citrate] | active: 1
CCCCNc1ccc(C(=O)OCCN(C)C)cc1 [Tetracaine hydrochloride] | inactive: 0

Structure (SMILES) | phenotypic hit
NC(=O)c1ccc[n+]([C@@H]2O[C@H](COP(=O)([O-])OP(=O)(O)OC[C@H]3O[C@@H](n4cnc5c(N)ncnc54)[C@H](OP(=O)(O)O)[C@@H]3O)[C@@H](O)[C@H]2O)c1 [sodium beta-nicotinamide adenine dinucleotide phosphate] | inactive: 0
CCc1ccc2c(O)c3c(cc2c1C(=O)OC)C(=O)c1c(O)ccc(O)c1C3=O [bisanhydrorutilantinone] | inactive: 0
C=C1C2CC[C@@]3(C)[C@H](c4ccoc4)OC(=O)C[C@]13O[C@H]1CC(=O)C(C)(C)[C@H](C(O)C(=O)OC)[C@@]21C (stereo partly drawn) [6-hydroxyangolensic acid methyl ester] | inactive: 0
O=C1[C@H](CC[C@H](O)c2ccc(F)cc2)[C@@H](c2ccc(O)cc2)N1c1ccc(F)cc1 [ezetimibe] | inactive: 0
CC(=O)O[C@H]1C[C@@H](OC(C)=O)C(C)(C)[C@@H]2C[C@@H](OC(C)=O)[C@@]3(C)C4=CC(=O)O[C@@H](c5ccoc5)[C@]4(C)CC[C@@H]3[C@@]12C [deoxykhivorin] | inactive: 0
COC(=O)C1=C(C)NC(C)=C(C(=O)OCCN(C)Cc2ccccc2)C1c1cccc([N+](=O)[O-])c1 (stereo not drawn) [Nicardipine hydrochloride] | inactive: 0
COC(=O)[C@H]1[C@H]2C[C@@H]3c4[nH]c5cc(OC)ccc5c4CCN3C[C@H]2C[C@@H](OC(=O)/C=C/c2cc(OC)c(OC)c(OC)c2)[C@@H]1OC [rescinnamine] | inactive: 0
CC(C)=CCc1c2c(c3occ(-c4ccc(O)cc4)c(=O)c3c1O)C=CC(C)(C)O2 [osajin] | inactive: 0
C=C1C2=CC(=O)O[C@@H](c3ccoc3)[C@]2(C)CC[C@@H]1[C@@]1(C)C=CC(=O)C(C)(C)[C@@H]1CC(=O)OC [deoxyandirobin] | inactive: 0
O=c1c2ccccc2oc2ccc(O)cc12 [2-hydroxyxanthone] | inactive: 0
C[C@@H]1CC[C@@]23CCC4(C)[C@@](C=CC5[C@@]6(C)CCC(=O)C(C)(C)C6CC[C@]54C)(OC2=O)C3[C@H]1C (stereo partly drawn) [3-oxoursan (28-13)olide] | inactive: 0
NC(=O)NC1NC(=O)NC1=O (stereo not drawn) [allantoin] | inactive: 0
CN(C)CCOC(c1ccc(Cl)cc1)c1ccccn1 (stereo not drawn) [carbinoxamine maleate] | inactive: 0
COc1ccc(-c2cc(=O)c3c(OC)cccc3o2)cc1 [5,4'-dimethoxyflavone] | inactive: 0
COc1c2ccoc2cc2oc(=O)ccc12 [bergapten] | inactive: 0
CCCCCCCCCCCC1=C(O)C(=O)C=C(O)C1=O [embelin] | inactive: 0
CC(=O)OC(C)(C)[C@@H]1Cc2cc3ccc(=O)oc3cc2O1 [marmesin acetate] | inactive: 0
Cc1ccccc1C(OCCN(C)C)c1ccccc1 (stereo not drawn) [orphenadrine citrate] | inactive: 0
O=C1C(O)=C([C@H]2CC[C@H](c3ccc(Cl)cc3)CC2)C(=O)c2ccccc21 [atovaquone] | inactive: 0
CC(=O)OCC1=C(C(=O)O)N2C(=O)[C@@H](NC(=O)Cc3cccs3)[C@H]2SC1 [cephalothin sodium] | inactive: 0
CCN(CC)CCNC(=O)COc1ccc(OC)cc1 [mefexamide] | inactive: 0
CCCCc1nc(Cl)c(CO)n1Cc1ccc(-c2ccccc2-c2nnn[nH]2)cc1 [losartan] | inactive: 0
CC1(C)S[C@@H]2[C@H](NC(=O)Cc3ccccc3)C(=O)N2[C@H]1C(=O)O [penicillin g potassium] | inactive: 0

Structure (SMILES) | phenotypic hit
COC(=O)C[C@H]1C(C)(C)[C@@H](OC(C)=O)[C@@H]2CC3C4CC(=O)O[C@@H](c5ccoc5)[C@]4(C)CCC3[C@@]1(C)C2=O (stereo partly drawn) [dihydrofissinolide] | inactive: 0
COc1c(O)cc2oc3cc(O)c(CC=C(C)C)c(O)c3c(=O)c2c1CC=C(C)C [alpha-mangostin] | inactive: 0
CCOC(=O)C1(O)Oc2cc(OC)cc(OC)c2C(=O)C1c1ccccc1 (stereo not drawn) [2-ethoxycarbonyl-2-hydroxy-5,7-dimethoxyisoflavanone] | inactive: 0
CC1(C)C[C@@H]2C(=O)CC[C@H]3O[C@]3(C)CC[C@H]21 [kobusone] | inactive: 0
O=C1CCC(N2C(=O)c3ccccc3C2=O)C(=O)N1 (stereo not drawn) [thalidomide] | inactive: 0
C[n+]1ccccc1C=NO [Pralidoxime iodide] | inactive: 0
CC[n+]1c(-c2ccccc2)c2cc(N)ccc2c2ccc(N)cc21 [homidium bromide] | active: 1
CNCCCN1c2ccccc2CCc2ccccc21 [Desipramine hydrochloride] | inactive: 0
O=C(O)[C@]1(O)C[C@@H](O)[C@@H](O)[C@H](O)C1 [quinic acid] | inactive: 0
Cc1cccc(Nc2ccccc2C(=O)O)c1C [mefenamic acid] | inactive: 0
CC(N)C(=O)OC(C)(C)Cc1ccc(Cl)cc1 (stereo not drawn) [Alaproclate hydrochloride] | inactive: 0
CC(C)NCC(O)c1cc(O)cc(O)c1 (stereo not drawn) [metaproterenol] | inactive: 0
Fc1ccc(C(c2ccccc2)(c2ccccc2F)n2ccnc2)cc1 (stereo not drawn) [flutrimazole] | inactive: 0
COc1ccc2c(c1)O[C@H]1c3ccc(OC)cc3OC[C@@H]21 [homopterocarpin] | inactive: 0
CC(C)CCCC(C)C1CCC2C3CCC4CC(O)CCC4(C)C3CCC12C (stereo not drawn) [cholestanol] | inactive: 0
COc1ccccc1N1CCN(CCCNc2cc(=O)n(C)c(=O)n2C)CC1 [Urapidil hydrochloride] | inactive: 0
NCCCC[C@H](NC(=O)[C@H](Cc1ccc(O)cc1)NC(=O)[C@@H](N)CCCCN)C(=O)O [lysyl-tyrosyl-lysine acetate] | inactive: 0
OC[C@H]1O[C@@](CO)(O[C@H]2O[C@H](CO)[C@@H](O)[C@H](O)[C@H]2O)[C@@H](O[C@H]2O[C@H](CO)[C@@H](O)[C@H](O)[C@H]2O)[C@@H]1O [melezitose] | inactive: 0
CCC(=O)OCC(=O)[C@@]1(OC(=O)CC)[C@@H](C)C[C@H]2[C@@H]3CCC4=CC(=O)C=C[C@]4(C)[C@@]3(Cl)[C@@H](O)C[C@@]21C [beclomethasone dipropionate] | inactive: 0
C=C(C)/C=C1/C=CC(=O)C(C)=C1 [retusoquinone] | inactive: 0
O=C(/C=C/C=C/c1ccc2c(c1)OCO2)N1CCCCC1 [piperine] | inactive: 0
CCN(CC)Cc1cc(Nc2ccnc3cc(Cl)ccc23)ccc1O [amodiaquine dihydrochloride] | inactive: 0
